The values below come from PubChem BioAssay AID1745853 (National Center for Advancing Translational Sciences (NCATS), 2022).

This is one part of the list. Shown are side measurements of this screen, not its main read-out; they come without a call.

Common to all, as to experiment: Primary Screen for Target Class Profiling of Small Molecule Inhibitors of Methyltransferases
Experiment [1] concerns the target Glycine N-methyltransferase (Homo sapiens) (UniProt Q14749). The settings on record: purified enzyme, MTase-Glo SAH luminescence; measured here: GNMT inhibition; at 40 µM; stronger effect = lower value. The method in brief:
(§1)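 Each enzyme was reacted with SAM and its substrate, with compounds tested once at 40 uM; SAH formed was read by MTase-Glo luminescence.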

Experiment [2] deals with Guanidinoacetate N-methyltransferase (Homo sapiens) (UniProt Q14353). The settings on record: purified enzyme, MTase-Glo SAH luminescence; measured here: GAMT inhibition; at 40 µM; stronger effect = lower value. In a few lines: as §1
Experiment [3] deals with Histamine N-methyltransferase (Homo sapiens) (UniProt P50135). The note with it: purified enzyme, MTase-Glo SAH luminescence; measured here: HNMT inhibition; at 40 µM; stronger effect = lower value. In a few lines: as §1
The target in experiment [4] is Nicotinamide N-methyltransferase (Homo sapiens) (UniProt P40261). The settings on record: purified enzyme, MTase-Glo SAH luminescence; measured here: NNMT inhibition; at 40 µM; stronger effect = lower value. In a few lines: as §1
The target in experiment [5] is Phenylethanolamine N-methyltransferase (Homo sapiens) (UniProt P11086). The settings on record: purified enzyme, MTase-Glo SAH luminescence; measured here: PNMT inhibition; at 40 µM; stronger effect = lower value. In a few lines: as §1
% is scaled to controls: 0 for no effect and ±100 for the full control effect.

Consider `COc1cccc(OC)c1OCCNCC1COc2ccccc2O1` (stereo not drawn), for which the activity change, negative = inhibition in experiment [1] is 4.24%; in experiment [2], 13.4%; in experiment [3], 10.1%; in experiment [4] it was -5.45%; in experiment [5], -1.14%.
As for `CCOc1ccc(N2C(=O)c3cc4sccc4n3CC2(C)C(=O)NC2CCCC(C)C2C)cc1` (stereo not drawn), the activity change, negative = inhibition is -6.21% in experiment [1]; 2.23% in experiment [2]; -0.145% in experiment [3]; -0.371% in experiment [4]; -6.5% in experiment [5].
On the same counts, the results for `Cc1cccc(N2C(=O)c3cc(C(C)(C)C)nn3CC2(C)C(=O)NC2CCCCC2)c1C` (stereo not drawn) are -7.33%, -3.88%, -1.76%, -7.99% and -8.05%.
For `CC(C)OCCCn1c(=O)c2ccccc2n2c(CCC(=O)NCc3ccc(F)cc3)nnc12`, the activity change, negative = inhibition in experiment [1] is -7.92%; in experiment [2], 2.54%; in experiment [3], -2.56%; in experiment [4] it was 5.55%; in experiment [5], -4.97%.
On the same counts, the results for `Cc1cccc(N2CCN(S(=O)(=O)c3cc4[nH]c(=O)[nH]c4cc3Br)CC2)c1C` are 0.163%, 0%, 5.24%, 9.28% and 1.95%.
Regarding `CCCn1c(=O)c2ccc(C(=O)NC(C)CC)cc2n2c(=O)n(CC(=O)Nc3cccc(CC)c3)nc12` (stereo not drawn), the activity change, negative = inhibition in experiment [1] stood at 3.1%; in experiment [2] it was 0%; in experiment [3] it was 9.64%; in experiment [4], 4.06%; in experiment [5], 6.99%.
In the case of `CC1(C(=O)N2CCCC(CCc3ccc(F)c(F)c3)C2)CC1` (stereo not drawn), the activity change, negative = inhibition was -3.71% in experiment [1]; -1.28% in experiment [2]; -3.42% in experiment [3]; -9.13% in experiment [4]; -2.97% in experiment [5].
As for `CCCCNC(=O)c1ncn2c1C(=O)N(C1CC1)C(C)(C(=O)NCc1ccc(OC)cc1)C2` (stereo not drawn), the activity change, negative = inhibition was found to be 1.28% in experiment [1]; 0% in experiment [2]; 11.6% in experiment [3]; 5.4% in experiment [4]; 5.26% in experiment [5].
With `COc1cccc(CN2C(=O)c3cc4ccccc4n3CC2(C)C(=O)NCc2ccccc2OC)c1` (stereo not drawn), the activity change, negative = inhibition in experiment [1] is 1.17%; in experiment [2] it was 6.86%; in experiment [3], 3.25%; in experiment [4] it was -2.38%; in experiment [5] it was -2.82%.
The matching figures for `Cc1ccc([S+](=O)([O-])N2CC3(Cc4ccccc4N([S+](C)(=O)[O-])C3)C2)cc1`: -7.87%, -6.96%, -6.14%, -11.9% and 0.71%.
`CCOc1ccc(N2C(=O)c3cc4ccccc4n3CC2(C)C(=O)NC2CCCC2)cc1` (stereo not drawn): the activity change, negative = inhibition in experiment [1] was -2.02%; in experiment [2] it was 3.55%; in experiment [3] it was 1.9%; in experiment [4] it was 4.19%; in experiment [5] it was 0.593%.
As for `CCCNC(=O)c1cc2n(n1)CC(C)(C(=O)NC1CCCCCC1)N(C)C2=O` (stereo not drawn), the activity change, negative = inhibition in experiment [1] is 7.5%; in experiment [2], 0%; in experiment [3], 9.74%; in experiment [4] it was 8.26%; in experiment [5] it was 2.54%.
Take `Cn1c(=O)n([C@H]2CCCN(S(=O)(=O)c3ccc4c(c3)OCCO4)C2)c2ncccc21`: the activity change, negative = inhibition in experiment [1] is 1.42%; in experiment [2], 3.12%; in experiment [3], 12%; in experiment [4], -7.91%; in experiment [5] it was 8.64%.
As for `CC1CCN(CCNC(=O)c2cc3cn(C(C)C)cc3s2)CC1`, the activity change, negative = inhibition in experiment [1] was -7.3%; in experiment [2], -3.58%; in experiment [3] it was -39.3%; in experiment [4], -9.98%; in experiment [5] it was -0.142%.
The matching figures for `CN1CC(C(=O)NCc2cccs2)NC1=O` (stereo not drawn): -0.762%, 3.36%, 1.08%, -1.93% and -0.63%.
The matching figures for `COc1ccc(CN2CCN(c3nc4ccccc4o3)CC2CCO)c(F)c1` (stereo not drawn): -2.12%, -10.4%, -1.34%, -14% and -3.74%.
Turning to `CCOCCCNC(=O)C1c2c(n(C)c3ccccc23)SCC(=O)N1c1cc(OC)cc(OC)c1` (stereo not drawn), the activity change, negative = inhibition was 6.09% in experiment [1]; 0% in experiment [2]; -1.38% in experiment [3]; 1.39% in experiment [4]; 5.55% in experiment [5].
The matching figures for `COc1ccc(C(=O)N2CCCC2c2nc(CCOc3cccc(C)c3)no2)cn1` (stereo not drawn): -0.404%, 2.65%, 0.868%, -1.62% and 4.32%.
The matching figures for `NC(Cc1c[nH]c2ccccc12)C(=O)NC(CCC(=O)O)C(=O)O` (stereo not drawn): 3.06%, -3.38%, -0.759%, -12.1% and -6.55%.
On the same counts, the results for `C=Cc1ccc(Cn2nc3n(CCc4ccccc4)c(=O)c4ccccc4n3c2=O)cc1` are -2.65%, 3.16%, 4.2%, -1.57% and -2%.
Take `CC1(C)C2CCC(CO[C@@H]3O[C@H](CO[C@@H]4OC[C@](O)(CO)[C@H]4O)[C@@H](O)[C@H](O)[C@H]3O)C1C2` (stereo partly drawn): the activity change, negative = inhibition in experiment [1] was 0%; in experiment [2], 7.63%; in experiment [3], 9.91%; in experiment [4], -3.58%; in experiment [5], 7.9%.
Turning to `C=C1CCC2C(C)(C)CCC[C@]2(C)[C@H]1CC/C(C)=C/C(=O)O` (stereo partly drawn), the activity change, negative = inhibition in experiment [1] was -12.8%; in experiment [2], -3.59%; in experiment [3] it was 0.367%; in experiment [4], -32.8%; in experiment [5] it was -1.03%.
On the same counts, the results for `CC(C)CCNC(=O)C1(C)Cn2c(c(-n3cccc3)c3ccccc32)C(=O)N1Cc1ccco1` (stereo not drawn) are 7.5%, 0.223%, 4.54%, 4.81% and 3.06%.
`CCCCCCCCCCC(O)C1C=CC2C(=O)N(c3ccccc3)C(=O)C2N1Nc1ccc([N+](=O)[O-])cc1` (stereo not drawn): the figures for the activity change, negative = inhibition in experiment [2], in experiment [4] and in experiment [5] were -14.3%, -30.2% and -6.79%, respectively.
For the compound `O=C1COc2ccc(-c3cccc(O)c3)nc2CN1Cc1ccc(C(F)(F)F)cc1`, the activity change, negative = inhibition in experiment [1] was -67.4%; in experiment [2], -61.5%; in experiment [3], -75%; in experiment [4], -64.7%; in experiment [5] it was -50.5%.
For the compound `C[C@@H]1C[C@H](O)/C=C/[C@H](O)[C@@H](O)CC(=O)O1`, the activity change, negative = inhibition was -0.637% in experiment [1]; -4.07% in experiment [2]; -5.38% in experiment [3]; -14.7% in experiment [4]; -1.53% in experiment [5].
On the same counts, the results for `Cc1ccc(CN2CCC3(CC2)CCN(Cc2ccco2)CC3CO)s1` (stereo not drawn) are -0.775%, -1.98%, -4.72%, -4.58% and 1.36%.
On the same counts, the results for `CCCn1c(=O)c2ccccc2n2c(=O)n(Cc3ccccc3)nc12` are 1.5%, 0.224%, 8.75%, -1.69% and 5.67%.
The matching figures for `O=C(COc1ccc(F)cc1)N1CCCN(c2cc(-c3ccc(Br)cc3)[nH]n2)CC1`: -13.5%, -9.61%, -7.54%, -17.4% and -15.5%.
